Data published in PMC3709894.
Changes are numbered by the printed parent chain. No constants are given. Whether binding was seen depends on the method and setting. In cells and extracts the contact can be indirect. Some entries that bind do so weakly or less than the wild type. Tags and fused reporters may be left off the sequences shown.

Tests used:
[1] = molecular target: T1, Myc-Rad21 WT in pCS2MT (human) (UniProt O60216); assay: co-IP; 293 T cells transfected with Myc-Rad21 WT or mutants; IP from whole cell lysate, blots of endogenous cohesin subunits including endogenous Rad21
T1 sequence: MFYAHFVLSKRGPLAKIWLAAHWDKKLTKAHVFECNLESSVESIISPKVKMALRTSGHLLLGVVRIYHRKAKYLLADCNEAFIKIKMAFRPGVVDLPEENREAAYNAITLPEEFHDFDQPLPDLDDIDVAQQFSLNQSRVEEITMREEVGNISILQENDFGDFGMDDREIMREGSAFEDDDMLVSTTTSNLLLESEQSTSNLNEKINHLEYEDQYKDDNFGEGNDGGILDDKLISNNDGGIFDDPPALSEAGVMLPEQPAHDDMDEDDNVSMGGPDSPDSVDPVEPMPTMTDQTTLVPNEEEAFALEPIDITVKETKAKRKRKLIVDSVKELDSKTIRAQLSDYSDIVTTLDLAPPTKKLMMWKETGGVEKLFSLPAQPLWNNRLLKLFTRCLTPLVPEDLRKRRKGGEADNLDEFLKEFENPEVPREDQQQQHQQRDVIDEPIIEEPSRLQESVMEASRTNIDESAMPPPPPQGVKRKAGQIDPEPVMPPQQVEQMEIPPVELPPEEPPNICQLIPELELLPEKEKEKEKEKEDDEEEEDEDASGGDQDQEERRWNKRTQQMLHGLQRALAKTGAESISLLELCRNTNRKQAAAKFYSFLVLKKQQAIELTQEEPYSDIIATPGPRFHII

[2] = molecular target: T2, Myc-Rad21 TM (L385A F389A T390A) in pCS2MT (human) (UniProt O60216); assay: as above
T2 sequence: T1 sequence with L385A, F389A, T390A

B1: endogenous Smc1 (protein, UniProt Q14683 1-1233)
chain: MGFLKLIEIENFKSYKGRQIIGPFQRFTAIIGPNGSGKSNLMDAISFVLGEKTSNLRVKTLRDLIHGAPVGKPAANRAFVSMVYSEEGAEDRTFARVIVGGSSEYKINNKVVQLHEYSEELEKLGILIKARNFLVFQGAVESIAMKNPKERTALFEEISRSGELAQEYDKRKKEMVKAEEDTQFNYHRKKNIAAERKEAKQEKEEADRYQRLKDEVVRAQVQLQLFKLYHNEVEIEKLNKELASKNKEIEKDKKRMDKVEDELKEKKKELGKMMREQQQIEKEIKEKDSELNQKRPQYIKAKENTSHKIKKLEAAKKSLQNAQKHYKKRKGDMDELEKEMLSVEKARQEFEERMEEESQSQGRDLTLEENQVKKYHRLKEEASKRAATLAQELEKFNRDQKADQDRLDLEERKKVETEAKIKQKLREIEENQKRIEKLEEYITTSKQSLEEQKKLEGELTEEVEMAKRRIDEINKELNQVMEQLGDARIDRQESSRQQRKAEIMESIKRLYPGSVYGRLIDLCQPTQKKYQIAVTKVLGKNMDAIIVDSEKTGRDCIQYIKEQRGEPETFLPLDYLEVKPTDEKLRELKGAKLVIDVIRYEPPHIKKALQYACGNALVCDNVEDARRIAFGGHQRHKTVALDGTLFQKSGVISGGASDLKAKARRWDEKAVDKLKEKKERLTEELKEQMKAKRKEAELRQVQSQAHGLQMRLKYSQSDLEQTKTRHLALNLQEKSKLESELANFGPRINDIKRIIQSREREMKDLKEKMNQVEDEVFEEFCREIGVRNIREFEEEKVKRQNEIAKKRLEFENQKTRLGIQLDFEKNQLKEDQDKVHMWEQTVKKDENEIEKLKKEEQRHMKIIDETMAQLQDLKNQHLAKKSEVNDKNHEMEEIRKKLGGANKEMTHLQKEVTAIETKLEQKRSDRHNLLQACKMQDIKLPLSKGTMDDISQEEGSSQGEDSVSGSQRISSIYAREALIEIDYGDLCEDLKDAQAEEEIKQEMNTLQQKLNEQQSVLQRIAAPNMKAMEKLESVRDKFQETSDEFEAARKRAKKAKQAFEQIKKERFDRFNACFESVATNIDEIYKALSRNSSAQAFLGPENPEEPYLDGINYNCVAPGKRFRPMDNLSGGEKTVAALALLFAIHSYKPAPFFVLDEIDAALDNTNIGKVANYIKEQSTCNFQAIVISLKEEFYTKAESLIGVYPEQGDCVISKVLTFDLTKYPDANPNPNEQ
In the case of B1, the binding [1] is reported as “binds” and the binding [2] is reported as “binds”.
